The supplement of paper PMC4466236
The full ranking holds about 33,000 sequences; the median of “E-score (dimensionless, -0.5 to 0.5)” is about -0.058, and the highest 2% start at about 0.35. The list shows a part of the results.

Tested on: MvaT
Assay: PBM 8-mer E-score (mean of HK and ME arrays) (E-score (dimensionless, -0.5 to 0.5)); higher = stronger relative binding preference; most listed sequences are background and not binding sites
Summary of the method: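 Full-length P. aeruginosa MvaT, with glutathione S-transferase fused to its N-terminus (cloned into pTH6838 by isothermal assembly), was tested by protein binding microarray using a previously described protocol. Two universal double-stranded 60-mer arrays (ME and HK) were used, each with a constant 25-mer primer region and a variable 35-mer region covering all 8-mers. The rank-based 8-mer E-score (-0.5 to 0.5) is the mean of the two arrays, parsed with a custom Python script.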

| Sequence | PBM 8-mer E-score |
| --- | --- |
| AGAAAAAC | 0.114 |
| AGCTCGCA | -0.132 |
| GACCACTC | -0.163 |
| TACGATAA | 0.218 |
| CAAATTTC | 0.115 |
| AACTCGCT | -0.0666 |
| ACATACCG | 0.0229 |
| AGCATCAT | 0.0041 |
| GCCTGATA | 0.0065 |
| AAAGGAAG | -0.0816 |
| CTCGCGAA | -0.087 |
| CTAGGCAC | -0.257 |
| GTACCTCA | -0.187 |
| GACACGCC | -0.119 |
| AGCTGGTA | -0.107 |
| CTCAGTCA | -0.237 |
| GGAAATTA | 0.285 |
| CTGACTGC | -0.193 |
| GTGGAGGA | -0.305 |
| ACTAAGGA | 0.0541 |
| TACTCAGA | 0.0532 |
| ATTAGAGC | 0.166 |

| Sequence | PBM 8-mer E-score |
| --- | --- |
| ACATCGAT | 0.231 |
| CCGTCAAA | -0.171 |
| GATTTGAA | 0.2 |
| TCGCCCGA | -0.0549 |
| CGGATAGC | -0.222 |
| GAGCCAGA | -0.133 |
| GAGAGCCC | -0.185 |
| ACAGTCTG | -0.12 |
| CGCGACCG | -0.19 |
| GAGAGCGC | -0.235 |
| AAGCTTTC | 0.0444 |
| CAAGCCGG | -0.23 |
| TCGACTCA | -0.0474 |
| ACGCCTAT | -0.173 |
| AAGTTTCT | 0.21 |
| ATCCGTCA | -0.133 |
| TCAGCAAA | 0.0956 |
| ATTTCCTA | 0.0193 |
| ACGGGCGG | -0.187 |
| AAAAGTAC | 0.105 |
| GGTTAGTA | -0.14 |
| ATATACAG | 0.379 |

| Sequence | PBM 8-mer E-score |
| --- | --- |
| ATGTTACA | 0.334 |
| CCAGATTA | 0.0657 |
| ACTAGTTC | 0.167 |
| ACCCCTTG | -0.192 |
| GCGAACGC | -0.147 |
| CAGCTTGC | -0.315 |
| CACTGTTC | 0.00494 |
| TAAGTTCA | 0.353 |
| CTAGCAGC | -0.286 |
| ATCTGCAG | 0.0275 |
| GCAGCTAA | 0.0363 |
| GAAATTAC | 0.247 |
| CGCAGTAA | -0.0812 |
| GCATCGTA | -0.06 |
| AGTTCGGG | -0.0593 |
| GCAGTCTA | -0.147 |
| GTTTTGGA | 0.146 |
| CTCGACAA | -0.0376 |
| CAATATGG | 0.156 |
| AACCTACG | -0.168 |
| ATCGATAA | 0.259 |
| ACCCGTGG | -0.197 |

| Sequence | PBM 8-mer E-score |
| --- | --- |
| CGGGCAAA | 0.0147 |
| AGGCTTTA | 0.0572 |
| CAGAGCCA | -0.205 |
| ATCCTTAC | 0.0415 |
| ATAGATGA | 0.0531 |
| ACACGGAA | 0.0124 |
| GGTTTCCA | -0.135 |
| CGTTAGCA | -0.0988 |
| AGCATCGG | -0.165 |
| AGTTAGTA | 0.322 |
| ACTGCTAC | -0.102 |
| AGCCGGCT | -0.27 |
| AGGATCTG | -0.298 |
| CTTAGCCC | -0.146 |
| GACGAAAA | 0.116 |
| CTTAGCAC | -0.246 |
| GCTATAAA | 0.217 |
| GTTGTTAA | 0.257 |
| GCTAAGAA | 0.099 |
| ACCATACA | 0.0797 |
